Experimental data reported in PubChem BioAssay AID2147 (National Center for Advancing Translational Sciences (NCATS), 2009).
Screen size: about 230,000 compounds; about 3,600 (1.6%) were called active. Inconclusive means that the source gave no clear call. Such entries were picked first, then a sample of the others. Calls come from the whole dose curve; as a rule, active = well fitted inhibition curve with a large enough effect (not every such curve was filed as active); inconclusive = small, poorly fitted or top-dose-only effect, or another doubt; inactive = no such curve, though single readings can be large or run the other way. Potencies of inconclusive entries are doubtful fits and often do not repeat.

Target: Lysine-specific demethylase 4E (Homo sapiens) (UniProt B2RXH2)
Test: qHTS Assay for Inhibitors of Human Jumonji Domain Containing 2E (JMJD2E)
Conditions: JMJD2E catalytic domain, FDH-coupled NADH fluorescence (FDH is formaldehyde dehydrogenase); series mostly up to 57.1 µM; activity change, negative = inhibition: at the top concentration
Note: nearly all actives have a fitted effect of over 50% in size.
Potency is the fitted concentration of half-maximal effect; tags give direction and shape of the fitted curve.
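Throughout, for activity change, negative = inhibition: 0% = wells with enzyme and -100% = buffer wells without enzyme.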

Sequence of UniProt B2RXH2 (B2RXH2 whole entry, looked up, the tested form may be a part): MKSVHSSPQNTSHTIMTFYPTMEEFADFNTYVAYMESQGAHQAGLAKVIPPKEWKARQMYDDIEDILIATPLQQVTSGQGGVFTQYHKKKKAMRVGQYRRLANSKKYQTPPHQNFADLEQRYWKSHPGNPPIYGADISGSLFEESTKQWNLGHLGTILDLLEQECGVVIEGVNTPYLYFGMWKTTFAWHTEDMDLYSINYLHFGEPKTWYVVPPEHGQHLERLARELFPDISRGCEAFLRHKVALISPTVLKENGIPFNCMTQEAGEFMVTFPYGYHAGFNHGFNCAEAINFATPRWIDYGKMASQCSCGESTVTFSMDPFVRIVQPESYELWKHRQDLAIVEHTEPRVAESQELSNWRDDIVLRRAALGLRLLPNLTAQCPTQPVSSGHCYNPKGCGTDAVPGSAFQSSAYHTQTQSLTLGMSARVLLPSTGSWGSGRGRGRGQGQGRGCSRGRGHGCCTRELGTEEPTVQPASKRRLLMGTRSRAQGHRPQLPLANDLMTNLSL

SMILES | activity change, negative = inhibition | Potency
N#Cc1c(/N=C/c2ccc(Br)s2)sc2c1CCC2 | inactive: -2.57% | –
CCc1c(C)nc(SCC(=O)CC(=O)OC(C)C)c(C#N)c1C | – | inconclusive: 39.8 µM [inhibitor, single point]
CCOC(=O)C1CCCN(C(=O)c2cc3nc(-c4ccc5c(c4)OCO5)cc(C(F)(F)F)n3n2)C1 (stereo not given) | – | inconclusive: 35.5 µM [inhibitor, single point]
CCc1cc2c(=O)c(-c3nc(C)cs3)coc2cc1OC(C)C(=O)NCCO (stereo not given) | – | inconclusive: 25.1 µM [inhibitor, single point]
CNC(=S)N1CCN(c2ccccn2)CC1 | – | inconclusive: 39.8 µM [inhibitor, single point]
N#CCCN/N=C(/Cc1nc2ccccc2[nH]1)c1ccc(Cl)cc1 | – | inconclusive: 39.8 µM [inhibitor, single point]
N#Cc1c(F)cccc1NCc1cccs1 | – | inconclusive: 25.1 µM [inhibitor, single point]
O=C(NCc1ccccc1)c1ccc(-c2ccc(F)cc2)o1 | – | inconclusive: 31.6 µM [inhibitor, partial curve]
C=CCc1cccc2cc(C(=O)NC3CCCC3)c(=O)oc12 | – | inconclusive: 22.4 µM [inhibitor, partial curve]
COCC(=O)n1nc(-c2ccccc2)nc1NCc1cccs1 | – | inconclusive: 35.5 µM [inhibitor, single point]
N#Cc1c(-c2ccccc2)ccn(Cc2ccccc2Cl)c1=O | – | inconclusive: 35.5 µM [inhibitor, single point]
Clc1cccc(/C=N/Nc2ncnc3ccccc23)c1 | inactive: 3.27% | –
CCSc1nc(-c2ccccc2)c(-c2ccccc2)n1CC(O)CO (stereo not given) | – | inconclusive: 31.6 µM [inhibitor, partial curve]
CCNc1ccccc1C(=O)O | – | inconclusive: 28.2 µM [inhibitor, partial curve]
c1ccc(OCc2nc3c4c(ncn3n2)-c2ccccc2CC42CCCC2)cc1 | – | inconclusive: 1 µM [inhibitor, full curve]
O=C(O)c1ccccc1NC(=O)N1CCOCC1 | – | inconclusive: 28.2 µM [inhibitor, partial curve]
Cn1cc(SCC(=O)N2CCCc3ccccc32)c2ccccc21 | inactive: -0.587% | –
Cc1ccc(-c2c(C#N)c(N)n3c(nc4ccccc43)c2C#N)cc1 | – | inconclusive: 28.2 µM [inhibitor, partial curve]
COc1ccc(/C=N/NC(=O)c2ccn[nH]2)cc1Cn1cc([N+](=O)[O-])cn1 | – | inconclusive: 39.8 µM [inhibitor, single point]
Cc1occc1-c1nnc(SCC(=O)Nc2ccccc2)n1CCc1ccccc1 | inactive: -4.92% | –
CC(c1ccccc1)N1CCn2c(nc3cc(NC(=O)NC4CCCCC4)ccc32)C1 (stereo not given) | – | inconclusive: 12.6 µM [inhibitor, partial curve]
C=CCSc1nc(N)c(C(=O)Nc2ccccc2)cc1C#N | – | inconclusive: 28.2 µM [inhibitor, partial curve]
COCCN1CCN(c2cc(-c3ccccc3)nc3cc(-c4cccc(F)c4)nn23)CC1 | – | inconclusive: 31.6 µM [inhibitor, partial curve]

SMILES | activity change, negative = inhibition | Potency
COc1cc(OC)cc(-c2n[nH]c(=S)n2-c2ccc3c(c2)OCO3)c1 | – | inconclusive: 39.8 µM [inhibitor, single point]
Cc1ccc(-c2nc(CN(Cc3cnn(C)c3)C(C)C)c(C)o2)o1 | – | inconclusive: 35.5 µM [inhibitor, partial curve]
COC(=O)C1=C(C(=O)OC)[C@@H]2Nc3ccccc3[C@@]23C[C@@H](C(=O)OC)N(S(=O)(=O)c2ccc(OC)cc2)C3=N1 | inactive: -6.07% [at 11.4 µM] | –
O=C(NCC12CC3CC(CC(C3)C1)C2)c1nn2cccnc2c1Cl | inactive: 5.43% | –
CC(C)c1nc(SCC(=O)Nc2c[nH]c(=O)[nH]c2=O)c2cnn(-c3ccccc3)c2n1 | – | inconclusive: 28.2 µM [inhibitor, single point]
O=C(N/N=C/c1c(O)n(-c2ccccc2Cl)c(=O)c2ccccc12)c1cccnc1 | – | inconclusive: 28.2 µM [inhibitor, partial curve]
COC(=O)c1ccc(C(=O)OC)c(NC(=O)c2cnc3n(c2=O)CCS3)c1 | – | inconclusive: 31.6 µM [inhibitor, partial curve]
O=C(/C=C/c1ccc2c(c1)OCO2)NCCCN1CCOCC1 | – | inconclusive: 31.6 µM [inhibitor, partial curve]
CN(Cc1ccco1)c1ccnc(-c2cccc(NS(C)(=O)=O)c2)n1 | inactive: -5.27% | –
Cc1oc2cc(O)ccc2c(=O)c1Oc1ccccc1 | – | inconclusive: 31.6 µM [inhibitor, partial curve]
COc1ccccc1CNC(=O)COC(=O)c1n[nH]c2ccccc12 | – | inconclusive: 39.8 µM [inhibitor, single point]
COc1ccc(C(C)C)cc1S(=O)(=O)N1CCN(c2ccccc2)CC1 | inactive: 1.55% | –
Oc1nc(Nc2ccc(F)cc2)sc1/C=C1\C=Nc2ccccc21 | inactive: 2.91% | –
Cc1ccccc1Cn1c(CN2CCN(C(=O)c3ccco3)CC2)nc2c1c(=O)n(C)c(=O)n2C | inactive: -0.281% | –
O=C(Nc1ccn(Cc2ccc(Cl)cc2)n1)c1ccccc1 | inactive: -1.6% | –
COC(=O)c1ccc(C(=O)OC)c(NC(=S)N2CCCC(CO)C2)c1 (stereo not given) | – | inconclusive: 25.1 µM [inhibitor, partial curve]
O=c1c2c3c(sc2n2cnnc2n1-c1ccccc1)N(Cc1ccccc1)CCC3 | – | inconclusive: 28.2 µM [inhibitor, single point]
CCCc1cc(C(N)=O)c(NC(=O)C2CCCO2)s1 (stereo not given) | inactive: -27.9% | –
COc1c(Cl)cccc1-c1cn2ccc(C)cc2n1 | – | inconclusive: 28.2 µM [inhibitor, partial curve]
COc1cc(N[C@@H](C)CCCN)c2ncccc2c1 | – | inconclusive: 7.94 µM [inhibitor, full curve]
COc1ccc(-c2cc(C(F)(F)F)c(C#N)c(SCC(=O)O)n2)cc1OC | inactive: 7.01% | –
CCOC(=O)c1c(C)n(-c2ccc(C)cc2)c2c(C(C(C)=O)C(=O)O)c(Br)c(O)c(O)c12 (stereo not given) | – | inconclusive: 28.2 µM [inhibitor, single point]
